Test results taken from PubChem BioAssay (NCATS).
The shares of active, inactive and inconclusive entries below differ from those in the screen. Potencies of inconclusive entries are left out as doubtful fits. Activity calls are given as the source filed them. Calls follow the shape of the dose curve; as a rule, active = well fitted curve in the direction sought with a large enough effect; inconclusive = small, poorly fitted or top-dose-only effect, or another doubt; inactive = no such curve, though single readings can be large; an effect the other way counts as inactive or inconclusive.

How the values were obtained:
[1] = target: Rap guanine nucleotide exchange factor 3 (Homo sapiens) (UniProt O95398); experiment: Confirmatory qHTS for agonist of cAMP-regulated guanine nucleotide exchange factor 3 (EPAC1) (AID 1645881); conditions: EPAC1 Rap1B BODIPY-GDP exchange fluorescence; activation: at 154 µM (top of the series), 100% = cAMP control response; also: nearly all actives have a fitted effect of over 75% in size
Sequence of UniProt O95398 (O95398 whole entry, looked up): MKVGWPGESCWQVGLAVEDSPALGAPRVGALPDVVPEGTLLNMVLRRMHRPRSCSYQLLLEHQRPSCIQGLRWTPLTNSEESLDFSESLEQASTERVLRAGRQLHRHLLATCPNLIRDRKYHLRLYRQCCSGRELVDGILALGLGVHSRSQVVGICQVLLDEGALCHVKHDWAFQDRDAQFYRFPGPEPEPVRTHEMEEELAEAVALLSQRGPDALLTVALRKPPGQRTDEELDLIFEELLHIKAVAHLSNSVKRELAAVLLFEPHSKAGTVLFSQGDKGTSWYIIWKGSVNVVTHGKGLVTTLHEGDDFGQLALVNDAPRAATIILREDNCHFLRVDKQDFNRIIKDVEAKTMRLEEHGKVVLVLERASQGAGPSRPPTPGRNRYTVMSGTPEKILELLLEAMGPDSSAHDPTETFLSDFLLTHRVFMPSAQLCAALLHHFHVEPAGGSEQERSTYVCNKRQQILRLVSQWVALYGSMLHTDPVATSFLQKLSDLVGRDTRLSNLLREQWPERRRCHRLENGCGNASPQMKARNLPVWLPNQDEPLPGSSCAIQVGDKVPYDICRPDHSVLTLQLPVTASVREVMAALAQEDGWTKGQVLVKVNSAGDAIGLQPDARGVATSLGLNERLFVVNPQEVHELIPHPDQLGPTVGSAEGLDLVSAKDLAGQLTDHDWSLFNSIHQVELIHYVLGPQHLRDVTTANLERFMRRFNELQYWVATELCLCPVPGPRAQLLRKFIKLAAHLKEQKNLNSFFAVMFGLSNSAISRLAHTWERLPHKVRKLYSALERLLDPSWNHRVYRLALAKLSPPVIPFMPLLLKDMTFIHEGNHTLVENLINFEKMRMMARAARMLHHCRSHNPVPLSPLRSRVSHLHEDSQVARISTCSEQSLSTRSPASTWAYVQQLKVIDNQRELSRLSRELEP

[2] = target: Rap guanine nucleotide exchange factor 4 (Homo sapiens) (UniProt Q8WZA2); experiment: Confirmatory qHTS for agonist of cAMP-regulated guanine nucleotide exchange factor 4 (EPAC2) (AID 1645884); conditions: EPAC2 GEF activity, Rap1B-BODIPY-GDP fluorescence; series mostly up to 154 µM;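 also: nucleotide exchange releases bodipy-GDP from Rap1 and this lowers its fluorescence; nearly all actives have a fitted effect of over 65% in size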; as to activation: % is scaled to controls: 0 for no effect and ±100 for the full control effect
Sequence of UniProt Q8WZA2 (Q8WZA2 whole entry, looked up): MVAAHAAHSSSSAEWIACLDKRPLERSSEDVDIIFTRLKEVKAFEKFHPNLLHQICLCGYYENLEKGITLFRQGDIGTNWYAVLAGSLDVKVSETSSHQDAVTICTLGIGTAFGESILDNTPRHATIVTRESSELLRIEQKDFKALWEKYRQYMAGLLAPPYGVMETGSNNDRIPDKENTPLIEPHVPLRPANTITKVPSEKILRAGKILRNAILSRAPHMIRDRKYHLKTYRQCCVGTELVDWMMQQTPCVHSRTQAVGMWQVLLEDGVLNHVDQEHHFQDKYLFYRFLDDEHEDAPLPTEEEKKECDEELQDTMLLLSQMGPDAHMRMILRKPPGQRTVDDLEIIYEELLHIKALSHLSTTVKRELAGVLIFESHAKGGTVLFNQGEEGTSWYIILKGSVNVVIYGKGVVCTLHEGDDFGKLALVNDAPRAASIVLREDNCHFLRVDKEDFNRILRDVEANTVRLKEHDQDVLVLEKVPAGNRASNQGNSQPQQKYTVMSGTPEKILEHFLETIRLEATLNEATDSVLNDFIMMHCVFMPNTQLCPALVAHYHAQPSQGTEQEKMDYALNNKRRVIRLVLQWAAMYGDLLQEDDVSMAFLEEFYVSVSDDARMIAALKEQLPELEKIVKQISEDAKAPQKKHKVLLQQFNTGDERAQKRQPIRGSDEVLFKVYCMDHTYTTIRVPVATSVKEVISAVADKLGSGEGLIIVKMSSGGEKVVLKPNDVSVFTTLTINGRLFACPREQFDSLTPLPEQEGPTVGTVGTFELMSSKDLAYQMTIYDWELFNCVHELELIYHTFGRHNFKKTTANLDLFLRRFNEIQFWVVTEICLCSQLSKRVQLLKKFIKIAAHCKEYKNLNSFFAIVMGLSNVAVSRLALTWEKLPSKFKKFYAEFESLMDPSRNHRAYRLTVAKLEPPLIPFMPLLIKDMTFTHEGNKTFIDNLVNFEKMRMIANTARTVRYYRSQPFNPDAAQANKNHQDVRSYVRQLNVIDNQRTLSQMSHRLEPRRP

[3] = target: Rap guanine nucleotide exchange factor 3 (Homo sapiens) (UniProt O95398); experiment: Counterscreen qHTS for agonist of cAMP-regulated guanine nucleotide exchange factor 3 (EPAC1) (AID 1645889); conditions: EPAC1 Rap1B-BODIPY-GDP exchange, fluorescence; activation: at 154 µM (top of the series) unless noted; also: nearly all actives have a fitted effect of over 40% in size; as to activation: % of control where 0% means no effect
How it was run: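 Rap1B–BODIPY-GDP (250 nM) with 50 uM GDP; compounds pin-transferred to 9.74 nM–152 uM final (activator) or from 7.32 nM upwards (inhibitor). Fluorescence Ex/Em 480/540 nm read at 5 and 30 min, then after adding cAMP or buffer, at room temperature.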

[4] = target: Tyrosyl-DNA phosphodiesterase 1 (Homo sapiens) (UniProt Q9NUW8); experiment: Confirmation Assay for Inhibitors of Tyrosyl-DNA Phosphodiesterase (TDP1) (AID 489007); conditions: recombinant human TDP1 enzymatic activity, dose-response; also: nearly all actives have a fitted effect of over 40% in size
Sequence of UniProt Q9NUW8 (Q9NUW8 whole entry, looked up): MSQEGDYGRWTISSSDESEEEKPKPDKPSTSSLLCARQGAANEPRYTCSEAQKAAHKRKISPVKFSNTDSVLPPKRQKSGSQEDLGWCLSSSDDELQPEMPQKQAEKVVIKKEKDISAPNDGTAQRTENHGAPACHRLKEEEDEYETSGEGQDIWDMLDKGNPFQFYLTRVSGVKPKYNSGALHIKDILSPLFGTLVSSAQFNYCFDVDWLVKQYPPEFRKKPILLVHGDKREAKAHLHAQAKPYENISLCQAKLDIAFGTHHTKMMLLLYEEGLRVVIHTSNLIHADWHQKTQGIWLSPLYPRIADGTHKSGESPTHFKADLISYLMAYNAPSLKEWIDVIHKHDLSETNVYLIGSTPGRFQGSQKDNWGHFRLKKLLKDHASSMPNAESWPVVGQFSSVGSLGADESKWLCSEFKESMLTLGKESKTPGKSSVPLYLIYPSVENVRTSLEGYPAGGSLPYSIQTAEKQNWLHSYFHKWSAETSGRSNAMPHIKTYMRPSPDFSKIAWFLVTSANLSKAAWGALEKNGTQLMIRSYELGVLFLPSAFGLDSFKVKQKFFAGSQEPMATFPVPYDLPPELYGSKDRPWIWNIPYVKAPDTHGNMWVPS
How it was run: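 Compounds are preincubated 15 min at room temperature with 1 nM recombinant human Tdp1. The reaction starts on adding 15 nM FITC-phosphotyrosine DNA substrate, runs 5 min, and is detected by AlphaScreen beads after 10 min.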

[5] = target: DNA polymerase eta (Homo sapiens) (UniProt Q9Y253); experiment: qHTS for Inhibitors of Polymerase Eta: Confirmatory Assay for Cherry-picked Compounds (AID 720502); conditions: Pol eta primer extension, TAMRA/BHQ fluorescence, 10 min
Sequence of UniProt Q9Y253 (Q9Y253 whole entry, looked up): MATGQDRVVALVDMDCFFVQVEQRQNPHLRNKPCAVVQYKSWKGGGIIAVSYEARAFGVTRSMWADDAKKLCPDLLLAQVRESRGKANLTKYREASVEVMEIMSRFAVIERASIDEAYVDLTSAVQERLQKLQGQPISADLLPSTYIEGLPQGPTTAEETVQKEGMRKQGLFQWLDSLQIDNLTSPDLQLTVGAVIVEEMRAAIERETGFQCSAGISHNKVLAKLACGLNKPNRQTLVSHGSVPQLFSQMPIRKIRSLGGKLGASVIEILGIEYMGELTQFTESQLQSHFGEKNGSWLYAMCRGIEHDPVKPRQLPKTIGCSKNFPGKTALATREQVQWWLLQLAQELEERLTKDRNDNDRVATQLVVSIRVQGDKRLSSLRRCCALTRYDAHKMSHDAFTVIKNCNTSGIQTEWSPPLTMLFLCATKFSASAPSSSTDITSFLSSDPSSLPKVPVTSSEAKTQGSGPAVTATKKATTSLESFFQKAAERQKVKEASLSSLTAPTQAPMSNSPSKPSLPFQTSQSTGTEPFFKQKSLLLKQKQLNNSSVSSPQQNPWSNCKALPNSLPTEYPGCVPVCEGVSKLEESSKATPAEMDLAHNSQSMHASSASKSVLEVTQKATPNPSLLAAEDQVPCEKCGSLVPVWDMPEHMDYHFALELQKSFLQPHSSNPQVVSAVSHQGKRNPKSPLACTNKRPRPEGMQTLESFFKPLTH
How it was run: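 Strand-displacement fluorescence (525 nm excitation, 598 nm emission) was read kinetically at 0 and 10 min after adding 50 nM final TAMRA-reporter/BHQ-2-template substrate. Beforehand, 10 nM Pol eta had been exposed to compound for 15 min at room temperature.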
Potency is read from the fitted curve at half-maximal effect; tags tell the direction and shape of the fitted curve.

Row | SMILES | Potency [1] | Potency [2] | Potency [3] | activation [3] | Potency [4] | Potency [5]
1 | CCN(C(=O)CN1CCN(c2ccccc2O)CC1)c1c(N)n(Cc2ccccc2)c(=O)[nH]c1=O | inconclusive [activator, partial curve, poor fit] | inactive | inconclusive [activator, full curve] |  |  | 
2 | Cn1cc(/C=C2\SC(=S)N(NC(=O)c3ccccc3Cl)C2=O)c2ccccc21 | inconclusive [activator, partial curve, poor fit] | active: 100 µM | active: 63.1 µM |  |  | 
3 | Nc1ncnc2c1nc(Sc1ccc(Cl)cc1)n2[C@@H]1O[C@@H]2COP(=O)(O)O[C@H]2[C@H]1O | active: 0.355 µM | inconclusive [activator, full curve, poor fit] |  | inconclusive: 28.9% [activator] |  | 
4 | COc1ccc(OC)c(/C=c2\sc3nc(-c4cccs4)nn3c2=O)c1 | active: 89.1 µM | active: 100 µM | inactive |  |  | 
5 | N#Cc1cc(C(=O)c2cc(F)ccc2O)cn(-c2nccs2)c1=O | active: 100 µM | active: 112 µM | active: 39.8 µM |  |  | 
6 | Cc1ccc[n+](-c2nc([O-])sc2C=O)c1 | inconclusive [activator, partial curve, poor fit] | active: 100 µM | active: 39.8 µM |  | inconclusive [inhibitor, partial curve] | inconclusive [inhibitor, single point]
7 | Brc1ccc(CSc2nccn2-c2ccccc2)cc1 | inconclusive [activator, partial curve] | inconclusive [activator, single point] | active: 1.58 µM |  |  | 
